{"source": "the supplement of paper PMC10126150", "note": "Values marked as one replicate rest on one cluster of the flow cell; about a third of the high ones do not repeat.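 Also: ATP exposure 15 min at 22 °C before imaging.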"}
{"system": "ATP", "assay": "switch fluorescence ratio, 500 uM ATP over buffer (Cy3 cluster intensity, sum of 5 cycles each) (fold (ratio)); higher = stronger signal-on switching upon ATP binding; sequences stand for … in TCGTCGGCAGCGTCAGATGTGTATAAGAGACAGTTTTTTTTTTTTTTTTTTTTTTTTT…TC", "conditions": "aptamer strand: ATP DNA aptamer (quencher-CACCTGGGGGAGTATTGCGGAGGAAGG + anchor), 100 nM annealed; ATP concentration: 500 uM; one replicate", "procedure,_shortened": "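Imaging in selection buffer was followed by imaging after 15 min with 500 uM ATP at 22 °C, for Cy3-labelled switching-strand clusters annealed to 100 nM quencher-labelled ATP aptamer on a modified Illumina MiSeq flow-cell. Five of these buffer/ATP cycles ran, separated by NaOH stripping and re-annealing. The fluorescence ratio per cluster is summed target-cycle over summed buffer-cycle Cy3 intensity, averaged per switch-domain sequence; clusters outside 100-1000 RFU were removed.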"}
{"sequence": "ATGCAGAAGG", "switch fluorescence ratio": 0.992}
{"sequence": "ATTATAGGTG", "switch fluorescence ratio": 1.4}
{"sequence": "GTCAGGGAAC", "switch fluorescence ratio": 0.965}
{"sequence": "ATGAGATGAG", "switch fluorescence ratio": 1}
{"sequence": "TTCGGCAGC", "switch fluorescence ratio": 1.02}
{"sequence": "CGCAGATGAA", "switch fluorescence ratio": 1.01}
{"sequence": "CTCGCACGAG", "switch fluorescence ratio": 1.11}
{"sequence": "TCAGGCGTCC", "switch fluorescence ratio": 0.974}
{"sequence": "CTGGCTAATT", "switch fluorescence ratio": 1.01}
{"sequence": "CGTGGTGAGG", "switch fluorescence ratio": 0.974}
{"sequence": "TGTTGGGCTA", "switch fluorescence ratio": 1.07}
{"sequence": "CTCAACCCGT", "switch fluorescence ratio": 1.02}
{"sequence": "ATAAGGGAGC", "switch fluorescence ratio": 0.949}
{"sequence": "GAGGCCCTCG", "switch fluorescence ratio": 0.985}
{"sequence": "TCGAGTACCT", "switch fluorescence ratio": 1.12}
{"sequence": "TAACCAAGGT", "switch fluorescence ratio": 1.01}
{"sequence": "CGGCTCCATC", "switch fluorescence ratio": 1.08}
{"sequence": "CCTGACTAGC", "switch fluorescence ratio": 1.78}
{"sequence": "GGCGTAGATA", "switch fluorescence ratio": 1.04}
{"sequence": "CATGATGAGG", "switch fluorescence ratio": 0.963}
{"sequence": "CGGACCGATA", "switch fluorescence ratio": 1}
{"sequence": "GGGTCTGGGA", "switch fluorescence ratio": 0.991}
{"sequence": "ATTGTGTAGC", "switch fluorescence ratio": 1.19}
{"sequence": "TTCGCGGGAT", "switch fluorescence ratio": 1.09}
{"sequence": "TCCCATTGGG", "switch fluorescence ratio": 1.03}
{"sequence": "TTGGTAACTT", "switch fluorescence ratio": 0.979}
{"sequence": "AAATTGACTA", "switch fluorescence ratio": 1.01}
{"sequence": "ACTATCTCCG", "switch fluorescence ratio": 1.36}
{"sequence": "CCAGTCTGAG", "switch fluorescence ratio": 1.05}
{"sequence": "TACGTTGCG", "switch fluorescence ratio": 0.966}
{"sequence": "TTAGTGTGGG", "switch fluorescence ratio": 1.04}
{"sequence": "TGCGATCTGC", "switch fluorescence ratio": 1}
{"sequence": "GGTCACATGA", "switch fluorescence ratio": 1.05}
{"sequence": "TGATAAGAAG", "switch fluorescence ratio": 1.01}
{"sequence": "TGCCTATTGA", "switch fluorescence ratio": 0.949}
{"sequence": "ACCATTTAAT", "switch fluorescence ratio": 1.03}
{"sequence": "GGCGAATGCG", "switch fluorescence ratio": 1}
{"sequence": "ATGCGGTGTA", "switch fluorescence ratio": 1.02}
{"sequence": "AACGAACCAA", "switch fluorescence ratio": 1.28}
{"sequence": "GCAGCATGCG", "switch fluorescence ratio": 1.01}
{"sequence": "TGTATGCCCT", "switch fluorescence ratio": 1.01}
{"sequence": "AACTAGGTT", "switch fluorescence ratio": 0.991}
{"sequence": "TTTCCGCAGC", "switch fluorescence ratio": 4.62}
{"sequence": "ATAAGGGATA", "switch fluorescence ratio": 1.02}
{"sequence": "TGATTCTGGA", "switch fluorescence ratio": 1.02}
{"sequence": "CCCGGGACTT", "switch fluorescence ratio": 1.01}
{"sequence": "ATATGTCTTC", "switch fluorescence ratio": 1.03}
{"sequence": "ACCCGTCACG", "switch fluorescence ratio": 1.08}
{"sequence": "AATGGAACCT", "switch fluorescence ratio": 2.17}
{"sequence": "TTCAAGTTTA", "switch fluorescence ratio": 1.03}
{"sequence": "TCGCTTGA", "switch fluorescence ratio": 1.04}
{"sequence": "TTTCATCAGC", "switch fluorescence ratio": 1.06}
{"sequence": "TAGGGTAGG", "switch fluorescence ratio": 1.03}
{"sequence": "ACGAGGCGGT", "switch fluorescence ratio": 1.45}
{"sequence": "CGGTAGAGC", "switch fluorescence ratio": 1.03}
{"sequence": "CCTATTAGGG", "switch fluorescence ratio": 0.989}
{"sequence": "GAGTTCTGGG", "switch fluorescence ratio": 0.987}
{"sequence": "CTGAAAATAC", "switch fluorescence ratio": 1.81}
{"sequence": "GCAACTGTTG", "switch fluorescence ratio": 0.979}
{"sequence": "CCGTCACATT", "switch fluorescence ratio": 3.49}
{"sequence": "TGAGTTACCG", "switch fluorescence ratio": 0.979}
{"sequence": "AAGACAGGCG", "switch fluorescence ratio": 1.07}
{"sequence": "ATGTGGAATC", "switch fluorescence ratio": 1.03}
{"sequence": "AGGTTAAGTG", "switch fluorescence ratio": 0.987}
{"sequence": "AGGTTTACTT", "switch fluorescence ratio": 1.03}
{"sequence": "TCCTGCATCA", "switch fluorescence ratio": 1.12}
{"sequence": "GTAGGTAG", "switch fluorescence ratio": 1.03}
{"sequence": "CGGATTTTCG", "switch fluorescence ratio": 1.04}
{"sequence": "ATCACTAATG", "switch fluorescence ratio": 1.05}
{"sequence": "TCCGGGACGC", "switch fluorescence ratio": 1.15}
{"sequence": "CTATAGCTGA", "switch fluorescence ratio": 1.07}
{"sequence": "TATGCAAGTG", "switch fluorescence ratio": 1.06}
{"sequence": "TGACTTCGCC", "switch fluorescence ratio": 2.12}
{"sequence": "GTAGCTCGGA", "switch fluorescence ratio": 1.05}
{"sequence": "ACTTCTCCGG", "switch fluorescence ratio": 2.58}
{"sequence": "TACGTTTTCG", "switch fluorescence ratio": 0.979}
{"sequence": "GTCGATTATC", "switch fluorescence ratio": 0.98}
{"sequence": "TGTAGGATGT", "switch fluorescence ratio": 1.01}
{"sequence": "TGGCGTGACT", "switch fluorescence ratio": 0.951}
{"sequence": "GGCCCATGGC", "switch fluorescence ratio": 0.993}
{"sequence": "TGACGTCTAG", "switch fluorescence ratio": 1.02}
{"sequence": "TTGGAGGTTG", "switch fluorescence ratio": 0.976}
{"sequence": "TTTTCAAAGT", "switch fluorescence ratio": 0.992}
{"sequence": "AGGTTCCGGC", "switch fluorescence ratio": 0.979}
{"sequence": "CTGTTATAGA", "switch fluorescence ratio": 0.984}
{"sequence": "GCAATCGTTG", "switch fluorescence ratio": 1.09}
{"sequence": "GGGGCTTAGG", "switch fluorescence ratio": 1.01}
{"sequence": "TGGTTCCTGA", "switch fluorescence ratio": 0.972}
{"sequence": "TGTTTTTGAT", "switch fluorescence ratio": 0.945}
{"sequence": "CAATATGTG", "switch fluorescence ratio": 0.994}
{"sequence": "AGTGGTGGAC", "switch fluorescence ratio": 0.984}
{"sequence": "TATCAAGACA", "switch fluorescence ratio": 1.01}
{"sequence": "TCACATAGAA", "switch fluorescence ratio": 0.994}
{"sequence": "CGAGCACGCG", "switch fluorescence ratio": 1.03}
{"sequence": "ACCCGGATTA", "switch fluorescence ratio": 1.02}
{"sequence": "TAGTTCGCCG", "switch fluorescence ratio": 1}
{"sequence": "GGGATACTAT", "switch fluorescence ratio": 0.971}
{"sequence": "GCAAGAGTCG", "switch fluorescence ratio": 1.25}
{"sequence": "AGCAAAAGTT", "switch fluorescence ratio": 1.01}
{"sequence": "AGTCCATGTG", "switch fluorescence ratio": 1.08}
{"sequence": "CTTATATGG", "switch fluorescence ratio": 1.04}
{"sequence": "ATCGGCACCC", "switch fluorescence ratio": 1.04}
{"sequence": "TACCTGTTTG", "switch fluorescence ratio": 1.02}
{"sequence": "GAGACGGTTT", "switch fluorescence ratio": 0.998}
{"sequence": "CCACAACGG", "switch fluorescence ratio": 1.04}
{"sequence": "CGTCAGGTTA", "switch fluorescence ratio": 1.07}
{"sequence": "ACAGTTGTAC", "switch fluorescence ratio": 1.06}
{"sequence": "ATCATGGACG", "switch fluorescence ratio": 0.909}
{"sequence": "TGGCACGGAG", "switch fluorescence ratio": 1}
{"sequence": "AGGTTATTCG", "switch fluorescence ratio": 0.984}
{"sequence": "TGCGTTGTAA", "switch fluorescence ratio": 1}
{"sequence": "TTAAGGCGGC", "switch fluorescence ratio": 0.978}
{"sequence": "TGGCGGCCGC", "switch fluorescence ratio": 0.984}
{"sequence": "TCTTTATCTA", "switch fluorescence ratio": 1.02}
{"sequence": "GTCCTGTGAG", "switch fluorescence ratio": 1.02}
{"sequence": "CGTTTGGTTG", "switch fluorescence ratio": 0.928}
{"sequence": "TTTAGTTAGG", "switch fluorescence ratio": 1.03}
{"sequence": "ACGTGATCCA", "switch fluorescence ratio": 1.04}
{"sequence": "GGTTTTACAG", "switch fluorescence ratio": 1.02}
{"sequence": "CGGCTAAGCG", "switch fluorescence ratio": 1.02}
{"sequence": "AGGTCCAGGC", "switch fluorescence ratio": 1.06}
{"sequence": "TGATTCTTCA", "switch fluorescence ratio": 1.02}
{"sequence": "ATTGGGACAA", "switch fluorescence ratio": 1.03}
{"sequence": "GCTCAGAAAA", "switch fluorescence ratio": 1.06}
{"sequence": "GGTTATCGCA", "switch fluorescence ratio": 1.04}
{"sequence": "CGTGGCGCGC", "switch fluorescence ratio": 1.01}
{"sequence": "TGAATGAGGT", "switch fluorescence ratio": 0.988}
{"sequence": "GGGATGATGG", "switch fluorescence ratio": 0.994}
{"sequence": "GCAAGAGAAT", "switch fluorescence ratio": 0.955}
{"sequence": "CGCAGGCTT", "switch fluorescence ratio": 1.15}
{"sequence": "TCATAACCT", "switch fluorescence ratio": 1.85}
{"sequence": "GCAGTTCAAC", "switch fluorescence ratio": 0.998}
{"sequence": "TCTTCCTGTT", "switch fluorescence ratio": 0.993}
{"sequence": "AGTGGAAACG", "switch fluorescence ratio": 0.948}
{"sequence": "GTAATAGTCG", "switch fluorescence ratio": 1.03}
{"sequence": "GGTATCAGTC", "switch fluorescence ratio": 0.991}
{"sequence": "CGATCGTTAT", "switch fluorescence ratio": 1.09}
{"sequence": "GCCCAGGTGA", "switch fluorescence ratio": 1.32}
{"sequence": "ACTTGGGCCG", "switch fluorescence ratio": 1.07}
{"sequence": "ACTCGGGATG", "switch fluorescence ratio": 1.06}
{"sequence": "TAAATTGGGT", "switch fluorescence ratio": 1}
{"sequence": "GATAGTTCTG", "switch fluorescence ratio": 0.963}
{"sequence": "TGTGATGTTC", "switch fluorescence ratio": 0.974}
{"sequence": "GCTAGTAATA", "switch fluorescence ratio": 1.05}
{"sequence": "AGAGATTGCT", "switch fluorescence ratio": 0.936}
{"sequence": "ACATCAGGAT", "switch fluorescence ratio": 0.998}
{"sequence": "GTGGGAACTC", "switch fluorescence ratio": 0.972}
{"sequence": "GGAGGTTAAA", "switch fluorescence ratio": 0.995}
{"sequence": "GCGTTCCTC", "switch fluorescence ratio": 1.69}
{"sequence": "GTGAGGGCGC", "switch fluorescence ratio": 0.962}
{"sequence": "ACCGGACTTG", "switch fluorescence ratio": 0.985}
{"sequence": "GATTGCCGCA", "switch fluorescence ratio": 1.1}
{"sequence": "AGGGTAAGGG", "switch fluorescence ratio": 0.991}
{"sequence": "TTGGTAGTC", "switch fluorescence ratio": 1.01}
{"sequence": "TCGTTGTACG", "switch fluorescence ratio": 1.02}
{"sequence": "CGAGGACGCC", "switch fluorescence ratio": 1.65}
{"sequence": "TGATCCAGCG", "switch fluorescence ratio": 0.996}
